Experimental data from the supplement of paper PMC7125110.
± gives the standard error. Variants at the background level are over-represented here.

B1: glmS ribozyme (parent)
chain: AUAAAAGCGCCAGAACUACAGAAAUGUAGUUGACGAGGAGGAGGUUUAUCGAAUUUUCGGCGGAUGCCUCCAAA

Legend:
Conditions in all cases: with glucosamine-6-phosphate
glucosamine-6-phosphate [1] = variants of: B1; experiment: self-cleavage kobs at 640 uM GlcN6P; higher = faster cleavage; RNA array
Method in brief: (§1)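 kobs was derived by fitting per-tile medians to one- or two-exponential decays after normalising signals to baseline and to non-cleaving reference variants. Those signals came from barcoded ribozyme variants transcribed in situ by E. coli RNA polymerase on sequenced MiSeq chips, followed through a hybridised Cy3 probe at 37 °C and imaged over ~14 h. Glucosamine-6-phosphate (40 μM to 10 mM) in HEPES/KCl/Mg(OAc)2 buffer was flowed in. Weighted Michaelis–Menten fits across concentrations then gave kcat and KM.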

glucosamine-6-phosphate [2] = variants of: B1; experiment: self-cleavage kobs at 2500 uM GlcN6P; higher = faster cleavage; RNA array
Method in brief: as §1

glucosamine-6-phosphate [3] = variants of: B1; experiment: self-cleavage kobs at 160 uM GlcN6P; higher = faster cleavage; RNA array
Method in brief: as §1

glucosamine-6-phosphate [4] = variants of: B1; experiment: self-cleavage kobs at 10000 uM GlcN6P; higher = faster cleavage; RNA array
Method in brief: as §1

Variant	self-cleavage kobs at 640 uM GlcN6P (glucosamine-6-phosphate [1]) [s⁻¹]	self-cleavage kobs at 2500 uM GlcN6P (glucosamine-6-phosphate [2]) [s⁻¹]	self-cleavage kobs at 160 uM GlcN6P (glucosamine-6-phosphate [3]) [s⁻¹]	self-cleavage kobs at 10000 uM GlcN6P (glucosamine-6-phosphate [4]) [s⁻¹]
U30C A42C U55C	< 1e-05	–	–	–
U30C C34A A36G A52U	< 1e-05	< 1e-05	–	–
U30C C70A	7.04e-05 ± 2.5e-05	5.57e-05 ± 1.8e-05	5.93e-05 ± 2.3e-05	4.43e-05 ± 1.5e-05
U30C C70U	0.000125 ± 1e-05	–	6.03e-05 ± 7.8e-06	–
U30C G35A A52U	< 1e-05	< 1e-05	–	–
U30C G35U	< 1e-05	< 1e-05	–	< 1e-05
U30C G38A	< 1e-05	–	–	< 1e-05
U30C G44C C61U	< 1e-05	–	–	–
U30C U31A G41A C50U	< 1e-05	–	–	–
U30C U69A	0.000111 ± 3e-05	5.71e-05 ± 1.2e-05	5.29e-05 ± 1.5e-05	2.76e-05 ± 6.9e-06
U30G A33U G51C	< 1e-05	< 1e-05	–	–
U30G C34U U47A	< 1e-05	–	–	–
U30G G32U G43U G51A C67G	< 1e-05	–	–	–
U30G G38A C70A	< 1e-05	< 1e-05	–	–
U30G U46G A52U U55A	< 1e-05	–	–	–
U30G U54A C67G	0.000105 ± 2.2e-05	–	–	–
U30G U56A C68G	5.24e-05 ± 2.3e-05	–	–	–
U31A A33C A52U	< 1e-05	< 1e-05	< 1e-05	–
U31A A33U G40A	< 1e-05	–	–	–
U31A A36C A42C C70U	< 1e-05	< 1e-05	–	–
U31A A42U G59U	< 1e-05	–	–	–

Variant	self-cleavage kobs at 640 uM GlcN6P (glucosamine-6-phosphate [1]) [s⁻¹]	self-cleavage kobs at 2500 uM GlcN6P (glucosamine-6-phosphate [2]) [s⁻¹]	self-cleavage kobs at 160 uM GlcN6P (glucosamine-6-phosphate [3]) [s⁻¹]	self-cleavage kobs at 10000 uM GlcN6P (glucosamine-6-phosphate [4]) [s⁻¹]
U31A C34U A36G	< 1e-05	< 1e-05	–	–
U31A G35C A48G	< 1e-05	–	< 1e-05	–
U31C A33C G63U C67G	< 1e-05	–	< 1e-05	–
U31C A33U A36U G38C C58U U65G G66C C71U	< 1e-05	< 1e-05	–	–
U31C A36U A64C C67U	< 1e-05	–	–	–
U31C C34G G44A U46C C58U	< 1e-05	–	–	–
U31C C58A G60A C67U	< 1e-05	–	–	–
U31C G32U A42C U46G C71G	< 1e-05	–	–	–
U31C G37A	0.000113 ± 2.3e-05	0.000119 ± 1.8e-05	–	0.000359 ± 3.4e-05
U31C G41U G60U	< 1e-05	–	–	–
U31C G66A C68A U69G	7.97e-05 ± 4e-05	4.91e-05 ± 1.6e-05	–	–
U31C U49C	< 1e-05	–	< 1e-05	–
U31C U49G G66U	< 1e-05	–	–	–
U31G A33C U45A U56C	< 1e-05	< 1e-05	< 1e-05	< 1e-05
U31G A42C U47A A48U C61U C71U	< 1e-05	< 1e-05	< 1e-05	–
U31G C34A A64G	< 1e-05	< 1e-05	–	–
U31G C34G	< 1e-05	–	< 1e-05	< 1e-05
U31G C50U U65C	< 1e-05	–	–	–
U31G G37A G63U	< 1e-05	< 1e-05	–	–
U31G G37C U45G C70U	< 1e-05	< 1e-05	–	–
U31G G41A G63C G66A	< 1e-05	–	–	< 1e-05

Variant	self-cleavage kobs at 640 uM GlcN6P (glucosamine-6-phosphate [1]) [s⁻¹]	self-cleavage kobs at 2500 uM GlcN6P (glucosamine-6-phosphate [2]) [s⁻¹]	self-cleavage kobs at 160 uM GlcN6P (glucosamine-6-phosphate [3]) [s⁻¹]	self-cleavage kobs at 10000 uM GlcN6P (glucosamine-6-phosphate [4]) [s⁻¹]
U31G G41U U47G	7.13e-05 ± 2e-05	–	–	–
U31G G44A C68U	< 1e-05	–	–	–
U31G U45G	0.000405 ± 0.0001	0.00155 ± 0.00034	–	0.00164 ± 0.00042
U31G U57C G59C G62U	< 1e-05	< 1e-05	–	–
G32A A39C	6.63e-05 ± 1.2e-05	0.000114 ± 2.1e-05	–	0.000259 ± 3.2e-05
G32A A42U U45C	< 1e-05	–	–	–
G32A C34G	< 1e-05	< 1e-05	–	< 1e-05
G32A C34G G38C C68U	< 1e-05	–	< 1e-05	–
G32A G40A C50U G59C G63A U69A	< 1e-05	< 1e-05	–	–
G32A U55G G59U	< 1e-05	–	–	–
G32A U56A G59C G66U	< 1e-05	–	–	–
G32C G37U G38C	< 1e-05	< 1e-05	–	–
G32C G40U A42G C70U	< 1e-05	< 1e-05	< 1e-05	–
G32C G51U G66A	< 1e-05	–	–	–
G32U A33C G38C C61U	< 1e-05	< 1e-05	–	–
G32U A33U G35U	< 1e-05	< 1e-05	–	–
G32U A52U C58U C61U	< 1e-05	< 1e-05	–	–
G32U C67G	4.87e-05 ± 1.6e-05	6.69e-05 ± 1.2e-05	–	0.000107 ± 1.2e-05
G32U G35U G51A C71G	< 1e-05	< 1e-05	–	–
